Data on 56 sequences can be found in the supplement of paper PMC11417369.

± gives the standard deviation of the averaged measurements. The list shows a part of the results.

In this test the test system is PfAP2-I AP2 domain 3 (GST-tagged). Description: gcPBM binding intensity (ln(normalized median fluorescence intensity)); higher = stronger DNA binding. The gist of the method:
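The binding buffer was 1× PBS containing 1% milk, 0.2 mg/ml BSA, 0.5% salmon testes DNA and 0.03% Triton X-100. In it, GST-tagged P. falciparum DNA-binding domains expressed in E. coli were applied for 1 h to an Agilent 4 × 180k array of primer-extended double-stranded 36-bp intergenic genomic probes plus negative controls. Binding intensity, read with Alexa488 anti-GST antibody and a 488 nm scan, is the highest Masliner-normalised natural-log median intensity across replicate spots of either probe orientation.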
As for “ATAAATAGTATTATATGTACACATAATATTTATAAA [XGTACX_site4751]”, the “gcPBM binding intensity (ln)” value worked out at 7.84 ± 0.2.

Consider “ATAGTTACACGCCAAAAAAAAAAAAAAAAAAAAAAA [CACACA_negctrl_site1133]”, for which the “gcPBM binding intensity (ln)” value was 8.2 ± 0.49.

With “TATAATTATGATGATAGTACGTATGAGTTCAAAACA [XGTACX_site4211]”, the “gcPBM binding intensity (ln)” value was 7.89 ± 0.41.

Turning to “CACATTTTTTAAATATTTTTCTACTCCATAATGTTT [CACACA_negctrl_site557]”, the “gcPBM binding intensity (ln)” value worked out at 8.3 ± 0.2.

Turning to “TTAATATAGGGAAAAAAAAGAAAATCGAAAATGTGT [CACACA_negctrl_site834]”, the “gcPBM binding intensity (ln)” value was 8 ± 0.75.

Consider “TTAAAATGATTGTTACTTTTTTTTCCGTTTTCTTAA [CACACA_negctrl_site1195]”, for which the “gcPBM binding intensity (ln)” value was determined as 7.46 ± 0.8.

Regarding “TTGTATTAAAATCAAGTGCATATAATTTAAGTTCAT [GTGCAC_site9495]”, the “gcPBM binding intensity (ln)” value was determined as 9.54 ± 0.042.

In the case of “CTTTGGTTATAACACACATGCACACGTAAATAAATA [TGCATGCA_site976]”, the “gcPBM binding intensity (ln)” value was found to be 8.67 ± 0.38.

In the case of “GTAGGTTACAAAATGTGAGAGAAGCAAATATAGAAA [CACACA_negctrl_site1819]”, the “gcPBM binding intensity (ln)” value came to 8.04 ± 0.84.

Turning to “CATCACCTTTTTAAATGTACGCATAATACCAAAAAA [XGTACX_site1587]”, the “gcPBM binding intensity (ln)” value was determined as 8.22 ± 0.37.

Regarding “TTTTGTTTTTAGTTTATACACACCATATTAATATAA [CACACA_site3102]”, the “gcPBM binding intensity (ln)” value amounted to 8.25 ± 0.61.

As for “TATATTTATAAATGAACACACACGCAATTTGAATCG [CACACA_site3370]”, the “gcPBM binding intensity (ln)” value was determined as 7.89 ± 0.49.

For the sequence “CTGTATTTATTTTTCTGTACCAAATCACCCCTTGTA [XGTACX_site395]”, the “gcPBM binding intensity (ln)” value came to 8.19 ± 0.63.

For the sequence “TTTCTTTTTCGATATACACACTGTATGTGTCTAAAA [CACACA_site6054]”, the “gcPBM binding intensity (ln)” value was 7.68 ± 0.46.

In the case of “TACGTTTTATGACACACACACAAAAAAAAAAAAAAA [CACACA_site7764]”, the “gcPBM binding intensity (ln)” value amounted to 8.14 ± 0.45.

In the case of “GATGTATAAAATAATACATGCATGTCCTACATATAT [TGCATGCA_site155]”, the “gcPBM binding intensity (ln)” value is 7.76 ± 0.65.

For the sequence “ACTATTTTAAAAATATGTACATACGTTGTAATTTAA [XGTACX_site7999]”, the “gcPBM binding intensity (ln)” value stood at 7.96 ± 0.32.

For “TTTCCGGTAATATGGAAATATATGTGGGTTTTTTTT [CACACA_negctrl_site1536]”, the “gcPBM binding intensity (ln)” value worked out at 7.62 ± 0.43.

Regarding “CGAAGGATAAACATACGTACATATATGTGTATAATA [XGTACX_site779]”, the “gcPBM binding intensity (ln)” value stood at 7.88 ± 0.43.

Turning to “AAAAAATACATCAAAAGAAACATATATATATATATA [GTGCAC_negctrl_site719]”, the “gcPBM binding intensity (ln)” value is 9.6 ± 0.33.

With “TTTTTTTTTTAGTATGAACACACATATATATTATAA [CACACA_site8957]”, the “gcPBM binding intensity (ln)” value was 7.76 ± 0.66.

As to “ATAAAACTTATTTAACGTACATATTTTATATACCTT [XGTACX_site5353]”, the “gcPBM binding intensity (ln)” value amounted to 7.9 ± 0.52.

As to “TATAAAATAAATAACAAAAAAAATAAAATAAAAATA [TGCATGCA_negctrl_site297]”, the “gcPBM binding intensity (ln)” value is 7.5 ± 0.65.

As to “TATAGCAAAATATTCACACAAACTATTAATAAAAGT [CACACA_site5795]”, the “gcPBM binding intensity (ln)” value was 7.66 ± 0.7.

Turning to “AATGGTTATAATATATGTACATATAAATATACTGAA [XGTACX_site8533]”, the “gcPBM binding intensity (ln)” value stood at 7.75 ± 0.42.

In the case of “ATATAAGTACCTATAACACACATATATTATAAGTAT [CACACA_site7281]”, the “gcPBM binding intensity (ln)” value was 7.91 ± 0.48.

Regarding “TAGAATAAATTAATTACACACGGAATTATATATATA [CACACA_site1616]”, the “gcPBM binding intensity (ln)” value amounted to 8.46 ± 0.6.

As to “TATAATAGTTCATAGGTGCAATATAATAAATTTATA [GTGCAC_site9573]”, the “gcPBM binding intensity (ln)” value worked out at 11.2 ± 0.47.

Consider “AAAAAAAAAAAAAAAAGTACATGAAAAAAAGAAGAA [XGTACX_site8384]”, for which the “gcPBM binding intensity (ln)” value was 8.7 ± 0.27.

In the case of “TATCATATATTATAGCGTACTTATTTATTTATTTAT [XGTACX_site1676]”, the “gcPBM binding intensity (ln)” value is 7.79 ± 0.36.

Consider “TGTGTAAAAATCATGGGTACACATTTTGATACCAAT [XGTACX_site1779]”, for which the “gcPBM binding intensity (ln)” value came to 8.16 ± 0.47.

Turning to “AATGAAAAGTAAAATACACACACATAATATAATTTA [CACACA_site8608]”, the “gcPBM binding intensity (ln)” value worked out at 7.7 ± 0.5.

As to “AAACTTGACGAACACACACACACATATATAAAAAAA [CACACA_site6494]”, the “gcPBM binding intensity (ln)” value was 8.03 ± 0.37.

Consider “ATAAATTAAAAACACACACACATCTGGATACCCCTA [CACACA_site5780]”, for which the “gcPBM binding intensity (ln)” value is 8.04 ± 0.4.

On to “TTTTTATAAAAAATTTACACTATATGACAGAAGTAA [XGTACX_negctrl_site481]”, for which the “gcPBM binding intensity (ln)” value came out at 7.71 ± 0.46.

For the sequence “AAAAAAAAAAAAAAGAGTACTCATATAAAAATATAA [XGTACX_site6551]”, the “gcPBM binding intensity (ln)” value stood at 8.18 ± 0.2.

In the case of “GGTGGTAAAAAACCTGCATGTCGAAATATTAAATAC [TGCATGCA_site33]”, the “gcPBM binding intensity (ln)” value was determined as 8.25 ± 0.78.

For the sequence “AAGAAGAAACAAAACACACACAGTCTTCTTTTCTAT [CACACA_site3088]”, the “gcPBM binding intensity (ln)” value amounted to 7.61 ± 0.85.

As for “GTATATGAATAATATTTTATGGTAATTTTTTTTTTT [XGTACX_negctrl_site512]”, the “gcPBM binding intensity (ln)” value stood at 7.29 ± 0.77.

For “TACAGAATTGTATATAGTACATAAAACAATATATAT [XGTACX_site7275]”, the “gcPBM binding intensity (ln)” value amounted to 7.89 ± 0.49.

As for “AATCGAAATCGTGCACGGACACATGCAGTAGCCGAG [XGTACX_site6001]”, the “gcPBM binding intensity (ln)” value amounted to 9.82 ± 0.66.

As for “TTCCCCCCCAGACACACACACACATACATACCACAT [CACACA_site2305]”, the “gcPBM binding intensity (ln)” value was 10.3 ± 0.11.

“ATATATATACACAATAGTACGTGTAATATTATTATT [XGTACX_site2151]”: the “gcPBM binding intensity (ln)” value was determined as 8.38 ± 0.7.

As for “TATACCTATAAATACACACACATATATAAATAAATA [CACACA_site6730]”, the “gcPBM binding intensity (ln)” value stood at 7.78 ± 0.37.

Regarding “TTTTCTTTTTGTTCGTGTACACACATGAAATTTATA [XGTACX_site3301]”, the “gcPBM binding intensity (ln)” value amounted to 8.78 ± 0.68.

As for “AAACGTACATAATACACACACATGTATACATATAAA [CACACA_site2048]”, the “gcPBM binding intensity (ln)” value is 8.36 ± 0.22.

For “ATTTCTTTTTTTTTTTTTTTTAATGTAAAACATTTT [CACACA_negctrl_site1462]”, the “gcPBM binding intensity (ln)” value came out at 7.57 ± 0.4.

As for “GAAGTTAGTGTTGACTGTACATATATATGTATATAT [XGTACX_site7243]”, the “gcPBM binding intensity (ln)” value came to 8.04 ± 0.45.

ATATTTTTATATGAGGTGCATATAATGACAATTAAG: the “gcPBM binding intensity (ln)” value stood at 10.7 ± 0.61.

Take “TCTTTTTATGTTCTAGAGCATTTTATTATTTAACAT [CACACA_negctrl_site1699]”: the “gcPBM binding intensity (ln)” value is 8.02 ± 0.83.

For ATACTATTTAAATGGGTGCTAAAAATAACAAAAATT, the “gcPBM binding intensity (ln)” value is 9.65 ± 0.085.

For the sequence “TTATATTTTAAGAAATGTACATGATATAATTATCAA [XGTACX_site8693]”, the “gcPBM binding intensity (ln)” value stood at 7.71 ± 0.52.

For the sequence “TGGATGAGGACATACACACACACATAAGTTGATACA [CACACA_site3423]”, the “gcPBM binding intensity (ln)” value was determined as 7.93 ± 0.3.

With “TTTTTTTTAATTTTCTGTACAAATTTATATATACTA [XGTACX_site4251]”, the “gcPBM binding intensity (ln)” value is 7.87 ± 0.62.

As to “AATGAAAAGGAACATACACACCCCATATAAATATAT [CACACA_site7588]”, the “gcPBM binding intensity (ln)” value turned out to be 8.14 ± 0.75.

As for “TATTTCTTATGAAGGACATGCAATATTATTTATCTC [TGCATGCA_site683]”, the “gcPBM binding intensity (ln)” value stood at 7.83 ± 0.35.
